According to ChEMBL document CHEMBL1201862, “PubChem BioAssay data set” (2004):
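Dose response: 5 concentrations. Exposure: 48 h. Format: 96-well plates. Endpoint: linear interpolation; highest concentration if not reached. Here, GI50 denotes the concentration required for 50% inhibition of growth.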 Active and inactive are the calls of the source. Cut-off read from the data, not from the text of the source: active = GI50 up to about 1.1 µM and inactive = higher.

Tested on: NCI-H322M
Test: DTP human tumour cell line panel, 48 h

Structure (SMILES)	GI50
COc1ccccc1C[C@@H]1OC2(C=CC(=O)C=C2)O[C@H]1Cc1ccccc1OC	inactive: 24.8 µM
CC(C)Oc1c(C2(c3ccccc3)SCCCS2)c(=O)c1=O	inactive: > 100 µM
CC(=O)Oc1c(C)c(-c2ccccc2)c(C)c(-c2ccccc2)c1C(=S)c1ccccc1	inactive: > 100 µM
COC(=O)CC(NC(=O)OCc1ccccc1)C(C(=O)OCc1ccccc1)C(C)(OC)OC (stereo not drawn)	inactive: 55.7 µM
CSCCOC(=O)C(=[N+]=[N-])c1ccc([N+](=O)[O-])cc1	inactive: > 100 µM
CC(C)c1ccc(C(c2ccc(OCC(=O)O)cc2)c2ccc(C(C)C)cc(=O)c2O)c(O)c(=O)c1	inactive: 10.7 µM
CN1C=COC1N=C1CCCCC1 (stereo not drawn)	inactive: > 100 µM
OCc1cc2ccncc2c2c1[nH]c1ccccc12	inactive: 4.91 µM
CCCCc1cc2c(cc1O)CCC1C2CC[C@@]2(C)C1CC[C@@H]2O (stereo partly drawn)	inactive: 21.6 µM
CCC1C(c2cc(OC)c(OC)c(OC)c2)c2cc3c(cc2OC1N1CCCC1)OCO3 (stereo not drawn)	inactive: 3.39 µM
COc1ccc(/C(CC2OC(=O)c3ccccc32)=N\NC(=O)C[N+](C)(C)C)cc1 (stereo not drawn)	inactive: 36.2 µM
CN(C)C1COC2Cc3ccccc3C1O2 (stereo not drawn)	inactive: > 100 µM
CC1=CC(=O)[C@@H](O)[C@]2(C)[C@H]3[C@@]4(O)OC[C@@]35[C@@H](C[C@@H]12)OC(=O)C(OC(=O)CC1=CCCC1)[C@H]5[C@@H](C)[C@H]4O (stereo partly drawn)	inactive: 1.77 µM
NCCN1CCCCCc2ccccc21	inactive: > 10 µM
CC(=O)c1nccc2c1c(C)nc1ccccc12	inactive: > 100 µM
O=c1c2cc(I)ccc2nc(SCc2nnco2)n1Cc1ccccc1	inactive: 88.3 µM
CC(C)C1/C(=N/O)CC(c2ccccc2)N(N=O)C1c1ccccc1 (stereo not drawn)	inactive: 42 µM
COCCNC1CCC2(SCCS2)c2[nH]c3ccccc3c21 (stereo not drawn)	inactive: > 100 µM
CC(=O)OCC1OC(NC(=S)Nn2c(-c3ccccc3)nc3ccccc3c2=O)C(OC(C)=O)C(OC(C)=O)C1OC(C)=O (stereo not drawn)	inactive: > 100 µM
Cc1ccc2c(O)cc(-c3cccs3)nc2n1	inactive: 16.3 µM
CC(C)C(=O)[C@@]1(C)SC[C@H]2CCN=C21	inactive: > 100 µM
CCc1ccccc1NC(=O)/C(CC(=O)c1c(C)[n+]([O-])c2ccccc2[n+]1[O-])=N\NS(=O)(=O)c1ccc(C)cc1	inactive: 96.4 µM

Structure (SMILES)	GI50
CCOC(=O)c1cc2c3ccn(Cc4ccccc4)c3c3c(C)noc3c2[nH]1	inactive: > 100 µM
O=[N+]([O-])O [NITRIC ACID]	inactive: > 100 µM
O=C(Nc1ccc(Cl)cc1)c1cc(S(=O)(=O)Nc2n[nH]c(Nc3ccc4ccccc4c3)n2)c(SSc2cc(Cl)c(C(=O)Nc3ccc(Cl)cc3)cc2S(=O)(=O)Nc2n[nH]c(Nc3ccc4ccccc4c3)n2)cc1Cl	inactive: 27.2 µM
O=C(O)C[S+]([O-])c1ccc2c3c(cccc13)C(=O)c1ccccc1-2 (stereo not drawn)	inactive: > 100 µM
O=c1[nH]c(=O)n(C2CC(O)C(CO)O2)cc1Oc1ccccc1 (stereo not drawn)	inactive: > 100 µM
C/C=C/[C@H]1O[C@@](O)([C@@H](C)[C@H](O)[C@H](C)[C@H]2OC(=O)/C(OC)=C/C(C)=C/[C@@H](C)[C@@H](O)[C@@H](CC)[C@@H](O)[C@H](C)C/C(C)=C/C=C/[C@@H]2OC)C[C@H](OC2CC(O)C(OC(N)=O)C(C)O2)[C@@H]1C (stereo partly drawn)	active: 0.94 µM
CC1(C)OC(=O)[C@@](C)([C@H](O)c2ccccc2)O1	inactive: > 100 µM
CSCSCC(N)CO.Cc1[nH]c(=O)[nH]c(=O)c1/C=C/C(=O)O	inactive: > 625 µM
O=C(O)COc1cc(-c2ccccc2)nc2ccccc12	inactive: 49.1 µM
CC(C)NC(=O)OCc1c(COC(=O)NC(C)C)n(C)c2c1ccc1ccsc12	inactive: 13.4 µM
COCCOC1=CC(=O)c2c(O)ccc(O)c2C1=O	inactive: 1.42 µM
O=C(O)c1c(-c2cccc3ccccc23)sc(-c2cccc3ccccc23)c1C(=O)O	inactive: 60.1 µM
CCOC(=O)C(NC(=O)c1nc[nH]c1/N=N/N(C)C)C(C)C (stereo not drawn)	inactive: > 100 µM
C[C@H]1CC[C@@H]2[C@@H](C)C[C@H]3[C@@H]4C(C)(C)OC(=O)[C@]4(C)C(=O)[C@@]23C1=O	inactive: > 100 µM
COc1c(O)cc2c(c1O)C(=O)C1=C(CCCC1)C2=O	inactive: 23.9 µM
COc1nc(N)nc2c1ncn2C1CC(O)C(CO)O1 (stereo not drawn)	inactive: > 100 µM
O=C(CCC1CCCCN1)Nc1ccc2c(c1)C(=O)c1ccc(NC(=O)CCN3CCCCC3)cc1C2=O (stereo not drawn)	inactive: 10.1 µM
OC(c1ccccc1)(c1ccccc1)c1nccc2ccccc12	inactive: 52 µM
c1ccc(CCCC2Sc3cccc4cccc(c34)S2)cc1	inactive: > 100 µM
COC(=O)C1(CCC(C)=O)CCCCCC1=O (stereo not drawn)	inactive: > 100 µM
CC(=O)OC1C(Oc2c(C)cc3c(c2O)[C@@H](C)CC[C@@H]3[C@@H](C)CCC=C(C)C)OCC(O)C1O (stereo partly drawn)	inactive: 18.3 µM
